US12729239B2, “Anti-CEACAM5 antibodies and conjugates and uses thereof” (Merck Patent GmbH, priority 2020, dated 2026)

Assays:
[1] = target: unrelated protein (BSA) (Bos taurus, UniProt P02769); assay: Selectivity ELISA of Fab, unrelated protein; format: binding; settings: all concentrations tested
Source text: (§1) Selectivity determination for Fab of mAb1 to human CEACAM5 and other human CEACAM family members was done in ELISA assay. Proteins were coated on 96-well assay plates: huCEACAM5-His6 (R&D Systems #4128-CM), huCEACAM6-His6 (3934-CM R&D Systems and recombinant protein obtained from Syngene), huCEACAM1-His6 (2244-CM R&D Systems), huCEACAM3-His6 (C449 Novoprotein), huCEACAM7-His6 (C926 Novoprotein), huCEACAM8-His6 (C583 Novoprotein), huPSG1-His6 (CC66 Novoprotein), each protein was coating the plate at 12 nM concentration.

[2] = target: cynomolgus_monkey-CEACAM5; assay: Octet Red binding affinity, captured Macaca fascicularis CEACAM5 ECD; settings: Fab format, KD=kd/ka
Source text: • To determine the binding affinity of soluble antibody analyte to captured target protein CEACAM5 (human or cynomolgus monkey Macaca fascicularis). […] Selectivity a) Species and Domains

[3] = tested on: other human CEACAM family members (huCEACAM6, huCEACAM1, huCEACAM3, huCEACAM7, huCEACAM8, huPSG1); assay: Selectivity ELISA of Fab, other human CEACAM family members; format: binding; settings: even when using 1000 nM Fab
Source text: as §1

[4] = target: BSA (bovine serum albumin) (Bos taurus, UniProt P02769); assay: Selectivity ELISA (species and domains), BSA negative control; format: binding; settings: negative control protein
BSA (bovine serum albumin), sequence (P02769 25-607): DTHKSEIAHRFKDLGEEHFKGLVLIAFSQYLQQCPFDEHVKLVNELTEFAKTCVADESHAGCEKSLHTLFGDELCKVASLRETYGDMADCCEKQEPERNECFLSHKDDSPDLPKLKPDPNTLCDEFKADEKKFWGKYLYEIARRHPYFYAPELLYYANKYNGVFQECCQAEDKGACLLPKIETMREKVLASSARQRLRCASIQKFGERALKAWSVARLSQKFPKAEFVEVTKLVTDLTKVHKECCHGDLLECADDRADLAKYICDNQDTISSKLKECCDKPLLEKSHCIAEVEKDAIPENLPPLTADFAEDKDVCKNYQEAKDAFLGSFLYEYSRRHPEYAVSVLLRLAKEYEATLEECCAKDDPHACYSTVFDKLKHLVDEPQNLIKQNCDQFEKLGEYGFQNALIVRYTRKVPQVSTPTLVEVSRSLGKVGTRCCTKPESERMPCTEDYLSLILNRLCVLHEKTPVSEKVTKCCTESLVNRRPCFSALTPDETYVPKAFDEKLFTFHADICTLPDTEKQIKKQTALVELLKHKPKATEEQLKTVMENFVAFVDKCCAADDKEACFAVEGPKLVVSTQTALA
Description: (§2) Selectivity determination for mAb1 was done by titrating the antibody from 4 nM to 0.25 pM and applying it on 1 μg/ml bound recombinant human (rh) CEACAM5 ECD or its domains N-A1-B1, A2-B2, A3-B3 or bound recombinant Macaca fascicularis (mf) CEACAM5 ECD, all obtained from Syngene, in an ELISA assay.

[5] = tested on: recombinant Macaca fascicularis (mf) CEACAM5 ECD; assay: Selectivity ELISA (species and domains), mfCEACAM5 ECD; settings: 1 μg/ml bound protein, read-out: Binding EC50 to mfCEACAM5
Description: as §2

unrelated protein (BSA), sequence (P02769 25-607): as above

B1: Fab of mAb1: Fab format of antibody mAb1 (antibody)
heavy: EVQLQESGPGLVKPSQTLSLTCTVSDGSVSRGGYYLTWIRQHPGKGLEWIGYIYYSGSTYFNPSLRSRVTMSVDTSKNQFSLKLSSVTAADTAVYYCARGIAVAPFDYWGQGTLVTVSSASTKGPSVFPLAPSSKSTSGGTAALGCLVKDYFPEPVTVSWNSGALTSGVHTFPAVLQSSGLYSLSSVVTVPSSSLGTQTYICNVNHKPSNTKVDKRVEPKSC
light: EIVLTQSPATLSVSPGERATLSCRTSQSVRSNLAWYQQKPGQAPRLLIYAASTRATGIPARFSGSGSGTEFTLTISSLQSEDFAVYYCQQYTNWPFTFGPGTKVDIKRTVAAPSVFIFPPSDEQLKSGTASVVCLLNNFYPREAKVQWKVDNALQSGNSQESVTEQDSKDSTYSLSSTLTLSKADYEKHKVYACEVTHQGLSSPVTKSFNRGEC
Binding to unrelated protein (BSA) [1]: did not bind
Kd [2]: 14.1 ± 2.53 nM
Binding to the other human CEACAM family members [3]: did not bind

B2: mAb1: anti-CEACAM5 IgG1 antibody, two heavy chains SEQ ID NO: 13 and two light chains SEQ ID NO: 14 (antibody)
heavy: EVQLQESGPGLVKPSQTLSLTCTVSDGSVSRGGYYLTWIRQHPGKGLEWIGYIYYSGSTYFNPSLRSRVTMSVDTSKNQFSLKLSSVTAADTAVYYCARGIAVAPFDYWGQGTLVTVSSASTKGPSVFPLAPSSKSTSGGTAALGCLVKDYFPEPVTVSWNSGALTSGVHTFPAVLQSSGLYSLSSVVTVPSSSLGTQTYICNVNHKPSNTKVDKRVEPKSCDKTHTCPPCPAPPVAGPSVFLFPPKPKDTLMISRTPEVTCVVVDVSHEDPEVKFNWYVDGVEVHNAKTKPREEQYNSTYRVVSVLTVLHQDWLNGKEYKCKVSNKALPSSIEKTISKAKGQPREPQVYTLPPSREEMTKNQVSLTCLVKGFYPSDIAVEWESNGQPENNYKTTPPVLDSDGSFFLYSKLTVDKSRWQQGNVFSCSVMHEALHNHYTQKSLSLSPG
light: EIVLTQSPATLSVSPGERATLSCRTSQSVRSNLAWYQQKPGQAPRLLIYAASTRATGIPARFSGSGSGTEFTLTISSLQSEDFAVYYCQQYTNWPFTFGPGTKVDIKRTVAAPSVFIFPPSDEQLKSGTASVVCLLNNFYPREAKVQWKVDNALQSGNSQESVTEQDSKDSTYSLSSTLTLSKADYEKHKVYACEVTHQGLSSPVTKSFNRGEC
modifications: HC of mAb1; LC of mAb1
Binding to BSA [4]: No binding
EC50 [5]: 0.324 nM
